The whole screen tested about 310,000 compounds, of which about 2,200 (0.71%) showed an effect of 50% or more. The effect is printed as a negative number. The list shows a part of the results. Where a SMILES comes first, the peptide text is derived from it.
molecular target: human ether-à-go-go-related gene (hERG) potassium channel (human, UniProt Q12809); experiment: primary screen, population patch clamp on CHO cells stably expressing hERG
Sequence (Q12809 whole entry, looked up): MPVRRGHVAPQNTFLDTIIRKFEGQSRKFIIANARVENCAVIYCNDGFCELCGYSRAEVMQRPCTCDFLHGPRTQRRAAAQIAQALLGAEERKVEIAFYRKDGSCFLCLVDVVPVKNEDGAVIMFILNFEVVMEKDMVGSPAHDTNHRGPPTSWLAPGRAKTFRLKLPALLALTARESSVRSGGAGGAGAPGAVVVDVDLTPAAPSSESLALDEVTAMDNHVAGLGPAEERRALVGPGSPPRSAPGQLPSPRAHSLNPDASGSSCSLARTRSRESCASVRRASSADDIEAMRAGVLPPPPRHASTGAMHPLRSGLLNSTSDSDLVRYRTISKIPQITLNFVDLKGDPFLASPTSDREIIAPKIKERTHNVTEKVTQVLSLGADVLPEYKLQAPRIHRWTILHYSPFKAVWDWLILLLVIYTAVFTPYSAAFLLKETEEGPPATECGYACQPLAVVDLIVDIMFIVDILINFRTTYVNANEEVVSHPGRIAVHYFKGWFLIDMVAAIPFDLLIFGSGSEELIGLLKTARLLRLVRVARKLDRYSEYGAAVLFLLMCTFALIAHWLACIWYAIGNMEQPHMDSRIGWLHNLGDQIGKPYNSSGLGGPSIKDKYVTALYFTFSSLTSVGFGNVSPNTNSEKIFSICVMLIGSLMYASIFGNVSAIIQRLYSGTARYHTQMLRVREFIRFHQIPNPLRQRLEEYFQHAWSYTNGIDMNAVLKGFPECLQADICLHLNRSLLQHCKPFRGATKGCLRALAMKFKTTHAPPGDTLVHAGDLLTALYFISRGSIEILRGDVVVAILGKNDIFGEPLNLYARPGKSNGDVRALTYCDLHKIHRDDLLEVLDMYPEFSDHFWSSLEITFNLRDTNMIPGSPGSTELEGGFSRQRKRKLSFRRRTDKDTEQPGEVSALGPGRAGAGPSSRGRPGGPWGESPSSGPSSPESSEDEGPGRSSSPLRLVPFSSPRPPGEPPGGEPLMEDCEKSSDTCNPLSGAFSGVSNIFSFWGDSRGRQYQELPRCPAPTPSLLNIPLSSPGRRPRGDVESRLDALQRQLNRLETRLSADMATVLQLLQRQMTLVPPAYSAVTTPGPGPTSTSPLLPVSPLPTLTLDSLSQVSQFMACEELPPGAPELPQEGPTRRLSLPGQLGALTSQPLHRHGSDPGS

Compound	hERG current change (%, negative = inhibition) at 1uM [%]
CC1CCC(NS(=O)(=O)c2ccc(Cl)nc2)CC1 (stereo not drawn)	-13.1
O=C(/C=C/c1cccc([N+](=O)[O-])c1)Nc1ccccc1N1CCOCC1	-4.79
COc1ccc(N=Cc2c(O)n(-c3ccc(OC)cc3)c(=O)c3ccccc23)cc1	24.2
COc1ccc(NC(=O)Cn2cccc2)c(OC)c1	-2.8
CCCCCCSc1cc(-c2nc3cc(C)ccn3c2NCCCC)ccc1OC.O=C(O)C(F)(F)F	5.08
CCOC(=O)CC1=C(C(=O)OCC)C(c2cccnc2)C(C#N)=C(N)O1 (stereo not drawn)	10.8
Cc1cccc(N2CCN(C(=O)C3CCC(CNS(=O)(=O)c4cccs4)CC3)CC2)c1C (stereo not drawn)	8.6
CC(C)(O)C(=O)NNC(=S)NCc1ccco1	-1.35
CCOC(=O)C(CC)n1nc(C)n2c(cc3sccc32)c1=O (stereo not drawn)	1.07
C/C(=N\NC(=S)Nc1ccc(C)c(C)c1)c1ccc(N2CCOCC2)cc1	13.8
O=C(c1ccco1)N1CCN(Cc2cc(=O)c(OCc3ccccc3Cl)co2)CC1	-1.87
CC(C)CN(C)C(=O)CCc1nnc(Cc2ccc(-c3ccccc3)cc2)o1	6.96
COC(=O)[C@]1(C)N[C@H](c2ccc(-c3ccc(Cl)c(Cl)c3)c(OC)c2)[C@@H]2C(=O)N(C)C(=O)[C@@H]21.O=C(O)C(F)(F)F	1.78
CCNC(=O)/C(C#N)=C/c1c(N2CCN(Cc3ccc4c(c3)OCO4)CC2)nc2c(C)cccn2c1=O	2.78
Cc1csc2c(NCCCN3CCOCC3)ncnc12	12.8
COc1ccc2sc(NC(=O)c3ccco3)nc2c1	8.24
Cc1ccc(C)c(C(=O)COC(=O)c2ccc(Br)o2)c1	12.2
Cc1ccc(N(CC(=O)NCc2ccco2)C(=O)CCC(=O)Nc2nccs2)cc1C	13
CCCCCN(C(=O)CCC(=O)OCCOc1ccccc1)c1c(N)n(CCCC)c(=O)[nH]c1=O	17.8
Cc1ccc(OCCOC(=O)C2CCN(S(=O)(=O)c3ccc(C)c(C)c3)CC2)cc1	4.73
CCOC(=O)C1CCN(C(=O)C2(NC(=O)NC3CCCCC3)CCCCC2)CC1	16.4
Cc1noc(/C=C/N(C)C)c1S(=O)(=O)NC1CCCCC1	6.29

Compound	hERG current change (%, negative = inhibition) at 1uM [%]
CC(C)(C)OC(=O)N1CCC[C@H]1c1nnc(SCc2c(Cl)cccc2Cl)o1	-6.71
O=C(C1CCN(CC2CC=CCC2)CC1)N(CCc1ccccc1)Cc1ccccc1 (stereo not drawn)	-47
CC(C)C[C@H](NC(=O)[C@@H]1CCCN1C(=O)[C@@H](N)Cc1ccc(O)cc1)C(=O)NCC(N)=O (H-YPLG-NH2)	20.7
CCNC(=O)c1ccccc1SCc1ccccc1	-2.71
CC(c1ccccc1)N1C(=O)c2ccccc2C1(O)Cc1ccccc1 (stereo not drawn)	13.6
Cc1ccc(N=C2CCCN2Cc2ccccc2)c(C#N)c1	-1.54
Cc1c(C(=O)Nc2cccc(N(C)S(C)(=O)=O)c2)cccc1[N+](=O)[O-]	7.37
Cc1ccc(N=Nc2c(O)ccc3n[nH]nc23)cc1	10.6
COC(=O)c1ccccc1NC(=O)c1sc(=S)n(C)c1N	12.2
CCOc1ccccc1C(=O)NCC(=O)NCCCc1ccccc1	1.47
CCOC(=O)c1ccc(NC(=O)c2cccc(C)c2[N+](=O)[O-])cc1	14.4
O=C(NN1CC(=O)N(c2cc(Cl)cc(Cl)c2)CC1=O)c1cccs1	10.6
Cc1c(C(=O)N2CCCC2)c(S(=O)(=O)Nc2ccccc2Cl)c(C)n1C	12.2
CN1C(=O)C(C(=O)NC(C)(C)C)C2c3ccccc3OC13CCCCC23 (stereo not drawn)	-4.43
COCc1cc(=O)[nH]c(/N=C(\N)Nc2ccccc2C)n1	5.07
Cc1[nH]c2c(C)cccc2c(=O)c1Br	9.54
Cc1ccc(C(=O)CSc2nnnn2-c2ccccc2)o1	9.14
CC(C)Cn1c(=O)oc2ccccc21	13.5
N#C/C(=C\c1c(Cl)cccc1Cl)c1nc2ccccc2o1	2.68
CCOC(=O)c1c(O)c2ccccc2n(CC)c1=O	9.28
COc1cc(C)ccc1OCc1cc(C(=O)N2CCN(C)C[C@@H]2c2ccccc2)no1	3.18
COc1cc(CC2(CCc3ccncc3)C(=O)N(C)C(=O)N(C)C2=O)cc(OC)c1OC	10.2

Compound	hERG current change (%, negative = inhibition) at 1uM [%]
O=C(COc1ccccc1)Nc1nnc(COc2ccccc2)s1	-2.25
CCN(Cc1ccccc1)C(=O)CCNS(=O)(=O)c1cc(Br)cnc1N	8.95
COc1ccc(/C=C(/NC(=O)c2ccco2)C(=O)NCc2ccco2)cc1OC	11.2
O=C(CSc1nc2ccccc2c(=O)n1Cc1ccc(C(=O)NC2CC2)cc1)NCc1ccco1	8.79
COc1cccc(-c2cc(C(=O)Nc3ccc(N(C)C(C)=O)cc3)c3cc(Br)ccc3n2)c1	10.7
COc1ccc(F)cc1S(=O)(=O)Nc1ccc2c(c1)OCO2	14.2
N#C/C(=C/c1ccc(O)cc1)C(=O)NCc1ccc(Cl)cc1	20
O=C(COC(=O)CCc1nc2ccccc2c(=O)[nH]1)NC(=O)NC1CCCC1	15.8
Cc1oc(-c2ccc(Cl)cc2)nc1CN1CCCC(C(=O)NCCCN2CCOCC2)C1 (stereo not drawn)	9.75
Cc1ccc(C(=O)NC2CC3CCC(C2)N3C)cc1 (stereo not drawn)	10.8
O=C(NCCN1C(=O)S/C(=C\c2ccccc2F)C1=O)C1CCN(S(=O)(=O)c2cccs2)CC1	-9.14
CCC(=O)Nc1cccc(-c2nnc(SCC(=O)c3ccccc3)n2C)c1	17.5
Cn1ccnc1SCC(=O)NC1CCCC1	23.6
CCc1ccc(-c2nc(CCl)cs2)cc1.Cl	18.8
COc1ccc(C(=O)C2CCCN(Cc3ccc4nonc4c3)C2)c(C)c1 (stereo not drawn)	0.937
COc1ccc(/C(C)=N\NC(=O)CSc2nnc(C)s2)cc1	2.72
O=C(CSCc1ccccc1)Nc1ccccc1	15.4
CN1c2ccccc2C(=O)NC1c1ccc([N+](=O)[O-])s1 (stereo not drawn)	4.13
CC(=O)c1ccc(NC(=O)CSc2nnc(NC(=O)CN3CCOCC3)s2)cc1	12.4
COc1ccc(NC(=O)CN2C(=O)C(C)Oc3ccccc32)cc1OC (stereo not drawn)	10.2
COc1cc(Cn2c(N)c(C#N)c3nc4ccccc4nc32)cc(OC)c1	12.5
O=C(NC(=S)NCCc1ccccn1)c1ccccc1	8.05

Compound	hERG current change (%, negative = inhibition) at 1uM [%]
COc1ccc(C2C=C(c3ccc(Cl)cc3)Nc3nc(NC(C)=O)nn32)cc1 (stereo not drawn)	-7.29
COc1ccc(C(=O)C2CCCN(C(=O)c3noc4c3CCCC4)C2)c(C)c1 (stereo not drawn)	-3.26
COC(=O)c1c(NC(=O)CN(c2ccc(C)c(C)c2)S(C)(=O)=O)sc2c1CCCC2	6.14
CC1CCCCN1C(=O)N[C@@H](Cc1ccccc1)C(=O)O (stereo partly drawn)	3.42
CC12CCC(C(=O)N(NC(=O)c3cc(Cl)ccc3O)C1=O)C2(C)C (stereo not drawn)	16.7
CSCCC1NC(=O)N(CC(=O)Nc2c(C(C)C)cccc2C(C)C)C1=O (stereo not drawn)	11.7
COc1cc2c(cc1OC)C(C(=O)Nc1ccc3c(c1)OCCO3)C(c1cccnc1)N(C)C2=O (stereo not drawn)	5.98
COc1ccc(-c2nc(CS(=O)(=O)CC(=O)NCc3cccc(OC)c3OC)c(C)o2)cc1	1.71
Cn1cc(C=C(C#N)C#N)c2ccccc21	4.92
Cc1ccccc1S(=O)(=O)Cc1ccc(C(=O)NCCCOC(C)C)o1	3.93
Cc1cc(=O)oc2cc(OC(=O)c3nn(C(C)C)c(=O)c4ccccc34)ccc12	11
COC(=O)c1ccccc1S(=O)(=O)N1CCC(C(=O)NC2=NCCS2)CC1	-0.334
CCCOC(=O)C1[C@H]2C(=O)N(C(C)c3ccc(OC)cc3)C[C@]23C=C[C@H]1O3 (stereo partly drawn)	7.4
O=C1c2ccccc2C(=O)N1Cc1nc2ccccc2o1	15.8
COc1ccc(CCNC(=O)CCS(=O)(=O)c2ccc3c(c2)NC(=O)CO3)cc1OC	8.71
CCCC(=O)OC/C(O)=C(\C#N)c1nc2ccccc2[nH]1	16
COC1(OC)N=C(NC(=O)Nc2ccccc2)C2(C#N)C(c3ccccc3)C12C#N (stereo not drawn)	12.1
C=CCn1c(SCC2CCCCO2)nc2sc(CC)cc2c1=O (stereo not drawn)	7.11
O=C(ON=C1CCN(S(=O)(=O)c2ccccc2)CC1)c1cccc(Cl)c1	5.55
ONC(=Nc1ccc(Cl)cc1)c1ccccc1Cl	7.69
COC(=O)c1nc(-c2ccc3c(n2)C(=O)C(N)=C(OC)C3=O)c(N)c(-c2ccc(OC)c(OC)c2O)c1C	9.36

Source: paper PMC4336329 (PLoS ONE, 2015)
